± gives the standard deviation of the averaged measurements. Whole data set: some 33,000 sequences, median “E-score (dimensionless, -0.5 to 0.5)” near -0.049, cut for the highest 2% near 0.37. This is one part of the list.
system: T1, PmTbr T-box DNA-binding domain (GST fusion); assay: PBM E-score of 8-mer (E-score (dimensionless, -0.5 to 0.5)); Tbr is Tbrain of the sea star Patiria miniata (Pm) or the sea urchin Strongylocentrotus purpuratus (Sp); higher = stronger binding preference; most listed sequences are background and not binding sites; details: the construct has about 5 more residues each side
T1 sequence: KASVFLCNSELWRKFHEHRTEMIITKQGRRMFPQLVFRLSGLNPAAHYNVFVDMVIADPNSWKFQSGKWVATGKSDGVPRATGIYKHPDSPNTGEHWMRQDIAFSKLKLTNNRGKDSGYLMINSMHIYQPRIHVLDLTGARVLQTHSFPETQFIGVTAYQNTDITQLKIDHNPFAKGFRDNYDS
Procedure, shortened: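 Expression of GST-fused Tbr T-box DNA-binding domains, each holding the full T-box plus roughly five flanking residues, was carried out in BL21 E. coli at 20 °C, with purification by glutathione affinity chromatography. Universal Agilent arrays made double-stranded by primer extension were incubated with the protein at 200 nM in PBS (pH 7.5), then scanned and quantified. All ungapped 8-mers were scored from probe intensities, and each received an enrichment E-score from the Universal PBM Analysis Suite, averaged over duplicate arrays.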

Sequence | PBM E-score of 8-mer
CGGATGGA | -0.227 ± 0.12
GCCTTATA | -0.0457 ± 0.036
AATGATCT | -0.0617 ± 0.0091
AGCATACC | -0.0981 ± 0.025
CCAAAAGC | -0.118 ± 0.065
CAGGCATC | -0.213 ± 0.048
AGGATTAT | 0.056 ± 0.13
ATCGAACC | -0.292 ± 0.071
ACAACTCG | 0.249 ± 0.01
ACAGTACC | -0.0912 ± 0.0061
AACCGCGC | -0.0685 ± 0.025
GAAGTTCA | -0.131 ± 0.0092
AACCAGGT | 0.135 ± 0.029
ACTTTCGC | 0.3198 ± 0.0023
AGGGCCGC | -0.214 ± 0.079
AGGTGGAG | 0.141 ± 0.0032
CGATGCGA | 0.183 ± 0.048
GAAACAAA | -0.0528 ± 0.14
CTAGCTAG | 0.117 ± 0.11
AGACGACC | -0.0508 ± 0.043
AGCGACCT | -0.012 ± 0.048
GCTAGTCC | 0.0125 ± 0.013
AATTCTCA | 0.266 ± 0.049
AAAGAAAG | -0.153 ± 0.024
AATAGCAT | 0.0415 ± 0.015

Sequence | PBM E-score of 8-mer
AGCTCTGA | -0.173 ± 0.028
CCGGTTGA | -0.165 ± 0.038
ATCGTGGC | -0.0809 ± 0.0066
GGGGATTA | 0.000805 ± 0.048
TGCAAAAA | 0.0937 ± 0.048
ATTTCTCG | 0.0909 ± 0.072
AGGAGCGC | 0.014 ± 0.096
GGCTGATA | -0.177 ± 0.022
GTACGGAC | -0.204 ± 0.007
GAATTACC | -0.0978 ± 0.03
GGCTGCCC | -0.198 ± 0.092
ACGAGCGG | -0.2651 ± 0.00084
GCGCCAGC | 0.152 ± 0.0098
ATCCCGGA | -0.189 ± 0.013
CAACCAGC | -0.0243 ± 0.034
ACAGGGGG | -0.0905 ± 0.085
AAATGGAT | -0.118 ± 0.16
CGAGTATC | -0.0272 ± 0.042
GCCGAGAA | 0.0847 ± 0.017
AGTTTCTA | -0.162 ± 0.0097
CTTTCAGC | -0.0875 ± 0.067
CGGCTATA | -0.139 ± 0.00038
AACCCCTT | -0.119 ± 0.016
TCGATTAA | -0.11 ± 0.071
AGTGCGCC | -0.0423 ± 0.032

Sequence | PBM E-score of 8-mer
CAAGCACC | 0.129 ± 0.016
CTTACCTA | -0.153 ± 0.059
GACTCGAC | 0.0517 ± 0.016
CTCCAAAA | -0.0316 ± 0.018
ACCACACG | 0.214 ± 0.021
GCCTGGTA | -0.0642 ± 0.0014
CATGGAGG | -0.0825 ± 0.028
CTAGCGCC | 0.316 ± 0.015
GGTCTAAC | -0.0483 ± 0.015
CACTACCA | 0.0676 ± 0.018
AAGTGTGC | 0.368 ± 0.0052
GCTGTTAC | 0.0246 ± 0.042
AACCAACT | -0.21 ± 0.1
GTAGAGAC | -0.16 ± 0.0056
ATTTGGTC | -0.154 ± 0.024
ACATAACC | 0.0736 ± 0.062
ACGCATCC | 0.000205 ± 0.0071
CAGCGTGG | -0.168 ± 0.1
CCTTTTGA | 0.0173 ± 0.049
GCGTACAA | -0.114 ± 0.0045
CACGGCTC | 0.052 ± 0.075
ACTATGCG | 0.153 ± 0.013
CTCGCATC | 0.176 ± 0.033
AGCATGAA | 0.059 ± 0.017
ATGACCTC | -0.0665 ± 0.086

Sequence | PBM E-score of 8-mer
AATGGTCT | -0.0374 ± 0.12
GGGCAAGA | -0.204 ± 0.023
ACTCAGCG | 0.0254 ± 0.026
GATTAGAA | -0.177 ± 0.0093
CTTCAGAC | -0.158 ± 0.061
CTATGTTA | -0.0642 ± 0.038
CATGTACA | -0.142 ± 0.046
CCGTTTAC | 0.0341 ± 0.013
AACTGCGC | -0.0804 ± 0.038
AGGGGAAA | -0.17 ± 0.026
AATTGGCG | 0.0711 ± 0.011
CCGTGACG | 0.166 ± 0.029
AAGATTTG | -0.0886 ± 0.055
CAACGTCC | -0.158 ± 0.019
GTAGCCAC | -0.214 ± 0.11
GATGATGA | -0.189 ± 0.025
ATTACTCC | -0.0311 ± 0.025
AAGATTGT | 0.189 ± 0.042
GAGTAGGA | -0.166 ± 0.024
CAACTAGA | -0.123 ± 0.065
AAGATATC | -0.0286 ± 0.018
CTATTTGC | -0.00357 ± 0.0087
CCTCGTTA | -0.192 ± 0.065
CTTATATA | 0.0789 ± 0.052
CGCACTTC | 0.324 ± 0.0058

Sequence | PBM E-score of 8-mer
AAATTACA | 0.0517 ± 0.2
GCGGCTTA | -0.145 ± 0.0061
GTCAAATA | 0.0141 ± 0.005
ACATCTTC | -0.0652 ± 0.035
AAGAGGCT | -0.1486 ± 0.0013
GGTCGGCA | -0.101 ± 0.02
GATCGCGC | 0.289 ± 0.018
TCCCTAGA | -0.22 ± 0.045
CGTTCATA | -0.113 ± 0.039
CAACCTGA | -0.03504 ± 0.00031
CACGATAA | 0.0347 ± 0.032
CATGCCGC | 0.016 ± 0.073
ACCGTTAA | 0.1245 ± 0.00073
GAGTTTGA | 0.0377 ± 0.06
ACCTGGCC | -0.0129 ± 0.034
CATATACG | -0.13 ± 0.02
ACGGAAAC | 0.101 ± 0.029
AACAAGGA | -0.0644 ± 0.059
GGAGCTCC | -0.355 ± 0.038
CCTGGGCG | 0.145 ± 0.087
ATTTATCG | 0.194 ± 0.021
CGAGTGCC | 0.154 ± 0.014
CCTACCAG | 0.00153 ± 0.031
GCATACTA | -0.108 ± 0.094
CCTAGCTA | 0.00928 ± 0.0051

Sequence | PBM E-score of 8-mer
CCGGGTCA | -0.0462 ± 0.096
CAGAAAGA | -0.00519 ± 0.014
CACATTTA | 0.23 ± 0.1
TGAAATCA | 0.127 ± 0.024
CCCATTCA | -0.0535 ± 0.018
ACTTGAAA | -0.142 ± 0.061
ATACAACC | 0.0288 ± 0.011
ACCGATGA | -0.0124 ± 0.019
CGTTTGGC | 0.0402 ± 0.11
AGGTTGTG | 0.16 ± 0.052
ATGGCCGC | -0.107 ± 0.026
CACGTAGA | 0.0877 ± 0.045
CGACTAAC | 0.114 ± 0.016
GAACCCCA | -0.161 ± 0.09
CCGATCTC | -0.139 ± 0.05
CGGTACAG | -0.2 ± 0.043
AGTGAATC | -0.0519 ± 0.0038
CGGTTAAG | -0.106 ± 0.071
AAGGACCT | -0.293 ± 0.035
CACATCCG | 0.23 ± 0.014
GAATCCCC | -0.042 ± 0.088
GCAAGAGC | -0.144 ± 0.11
CGATGACG | 0.0958 ± 0.0023
GCCAGTCA | 0.0625 ± 0.0016
ACTCAGTC | 0.0109 ± 0.044

Sequence | PBM E-score of 8-mer
AGCATAAT | -0.0872 ± 0.074
GCCCTCTA | -0.184 ± 0.013
ACGCTCAG | 0.05 ± 0.0094
GCAGGGCA | -0.118 ± 0.044
AAAACATG | -0.0125 ± 0.029
CAGTTACA | 0.056 ± 0.018
GCGATTCA | 0.04 ± 0.0093
AGCTGATC | -0.124 ± 0.059
CTCTCGAC | 0.0791 ± 0.013
AGATATCG | 0.105 ± 0.0051
AGGGACCG | -0.32 ± 0.038
CGACGGGA | -0.129 ± 0.036
AGTAGTAA | -0.0631 ± 0.039
CACTGTGA | 0.234 ± 0.022
CTCTTGAA | -0.374 ± 0.012
AATTAGAC | -0.052 ± 0.019
AGGAGCGA | 0.00809 ± 0.0052
ATTGGTCA | 0.00472 ± 0.024
ATCCGGCA | -0.0845 ± 0.015
ATGACTAG | -0.149 ± 0.1
ATCATCGA | -0.127 ± 0.086
TACGCAAA | -0.118 ± 0.039
ATAGAACG | -0.0824 ± 0.027
AGTCGAGA | -0.0238 ± 0.021
TAGTGGCA | 0.248 ± 0.016

Sequence | PBM E-score of 8-mer
AAAGGCAG | -0.198 ± 0.036
TCAACGGA | -0.111 ± 0.0019
CAACGATC | -0.125 ± 0.086
AGCTGTCA | 0.3661 ± 0.003
AACGGCTC | 0.187 ± 0.048
CTCCACTC | -0.0788 ± 0.081
CGCCTTAG | 0.256 ± 0.018
AACGCCCA | 0.0946 ± 0.066
CAGAAACC | -0.149 ± 0.044
CGTTCGGA | 0.035 ± 0.041
CACAGGGA | -0.19 ± 0.017
CAAGGCTG | 0.0203 ± 0.035
GGCAGTCA | -0.0914 ± 0.0055
CGTGCGTC | -0.0734 ± 0.052
CATTCACC | -0.0785 ± 0.054
AACGTACA | 0.0134 ± 0.073
GGTAACTA | -0.232 ± 0.022
CGGCCGGC | 0.0108 ± 0.011
CCTAAAAG | -0.119 ± 0.033
CAGGAAAG | 0.118 ± 0.042
ACGCGTGA | 0.38 ± 0.012
ACTGTGGC | 0.0104 ± 0.017
CGTTGATC | -0.108 ± 0.083
CCTAGCCC | -0.153 ± 0.033
AAAGATGT | 0.0868 ± 0.054

Sequence | PBM E-score of 8-mer
GAGGAGCC | -0.228 ± 0.007
CACAGGCA | -0.0862 ± 0.047
AACGGAGA | -0.248 ± 0.08
ATATCGCG | 0.309 ± 0.015
ACTCCAGG | -0.112 ± 0.051
GCTAGTAA | -0.216 ± 0.012
CAATCTAA | -0.204 ± 0.018
AGTGTATA | -0.069 ± 0.08
GAGTTCGC | 0.222 ± 0.04
CGCGTGAG | 0.282 ± 0.004
AGCGAGCT | -0.0276 ± 0.057
AGGTTCAC | 0.144 ± 0.04
AAACTACT | 0.0819 ± 0.0066
GACCGGTA | -0.176 ± 0.05
AATTCCGC | 0.0274 ± 0.059
AAAAGCAT | -0.258 ± 0.053
GATTCAAC | -0.147 ± 0.014
GTGCGGAA | 0.306 ± 0.0038
ATGACCAC | -0.0935 ± 0.029
